± gives the standard deviation of the averaged measurements. The full ranking holds about 33,000 sequences; the median of “E-score (dimensionless, -0.5 to 0.5)” is about -0.046, and the highest 2% start at about 0.36. Some of the results follow.
System: T1, SpTbr T-box DNA-binding domain (GST fusion)
T1 sequence: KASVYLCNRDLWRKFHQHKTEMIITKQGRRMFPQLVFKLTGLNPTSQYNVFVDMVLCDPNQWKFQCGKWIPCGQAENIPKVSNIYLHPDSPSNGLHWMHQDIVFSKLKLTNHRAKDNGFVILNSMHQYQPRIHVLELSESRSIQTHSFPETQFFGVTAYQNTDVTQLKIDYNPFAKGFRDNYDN
Assay: PBM E-score of 8-mer (E-score (dimensionless, -0.5 to 0.5)); Tbr is Tbrain of the sea star Patiria miniata (Pm) or the sea urchin Strongylocentrotus purpuratus (Sp); higher = stronger binding preference; most listed sequences are background and not binding sites
Conditions: the construct has about 5 more residues each side
Method in brief: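 Expression of GST-fused Tbr T-box DNA-binding domains, each holding the full T-box plus roughly five flanking residues, was carried out in BL21 E. coli at 20 °C, with purification by glutathione affinity chromatography. Universal Agilent arrays made double-stranded by primer extension were incubated with the protein at 200 nM in PBS (pH 7.5), then scanned and quantified. All ungapped 8-mers were scored from probe intensities, and each received an enrichment E-score from the Universal PBM Analysis Suite, averaged over duplicate arrays.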

| Sequence | PBM E-score of 8-mer |
| --- | --- |
| GGCCCACC | -0.212 ± 0.045 |
| ACGTACTA | -0.0923 ± 0.0055 |
| CGATTCTC | 0.142 ± 0.0019 |
| GAGGGGAA | -0.0785 ± 0.031 |
| GACCCGCA | -0.125 ± 0.017 |
| CCTACTCC | -0.221 ± 0.015 |
| GCGCTCCA | -0.0637 ± 0.15 |
| ATCCTCCG | -0.145 ± 0.016 |
| GACAATAA | -0.00196 ± 0.046 |
| CTAGTAAC | -0.186 ± 0.021 |
| CGACACTC | 0.344 ± 0.007 |
| ATCGTCGC | 0.133 ± 0.065 |
| CAGCGCGG | 0.0687 ± 0.087 |
| CACCGGTG | 0.183 ± 0.027 |
| CGACGGAG | -0.171 ± 0.038 |
| ATTGATGG | -0.163 ± 0.037 |
| CCTACGAA | -0.173 ± 0.063 |
| GAAGGTCA | -0.0314 ± 0.073 |
| CCGTTCAC | 0.367 ± 0.029 |
| ACCTCCTC | 0.169 ± 0.02 |
| CGCATCGC | 0.122 ± 0.026 |
| GAATCTCC | -0.14 ± 0.0052 |
| CCCTTCTC | -0.1496 ± 0.0013 |
| CTTGTGTA | -0.00671 ± 0.024 |
| CCGAAAGA | -0.141 ± 0.018 |

| Sequence | PBM E-score of 8-mer |
| --- | --- |
| GTTTTCGA | -0.0727 ± 0.051 |
| CACAAATC | 0.105 ± 0.012 |
| CATTGGTC | -0.00679 ± 0.01 |
| AACGAAAG | -0.173 ± 0.069 |
| GGGGTGGA | -0.00335 ± 0.03 |
| AAAGTTCC | -0.0533 ± 0.042 |
| GAGCCGGC | -0.165 ± 0.0071 |
| TCATGAAA | -0.154 ± 0.033 |
| AGTTTATG | -0.127 ± 0.027 |
| CACCTCTC | 0.421 ± 0.022 |
| CTAAGATA | 0.0445 ± 0.014 |
| CAGTTCGG | -0.105 ± 0.045 |
| ATGTGTCG | 0.385 ± 0.011 |
| CGTGAGCC | 0.0349 ± 0.039 |
| AGCAATAC | -0.12 ± 0.13 |
| ACTTTCCG | 0.0612 ± 0.0031 |
| ATCAATTA | -0.00366 ± 0.054 |
| ACCTTGGG | 0.00347 ± 0.012 |
| AGGTGGCG | 0.401 ± 0.011 |
| TGTGTGAA | 0.4829 ± 0.004 |
| TCTACAAA | -0.107 ± 0.1 |
| AATGTAGT | -0.148 ± 0.016 |
| ACTTGAGA | 0.183 ± 0.083 |
| AATCTTAT | -0.122 ± 0.0085 |
| AACATGTA | -0.0332 ± 0.005 |

| Sequence | PBM E-score of 8-mer |
| --- | --- |
| AGAGGAAT | -0.168 ± 0.073 |
| CAGTTCTC | 0.143 ± 0.053 |
| GATGCGTA | -0.0483 ± 0.05 |
| CAAGCTTG | 0.102 ± 0.004 |
| ATGCCCTG | -0.171 ± 0.066 |
| CTATCTCA | 0.189 ± 0.03 |
| AGACTTTC | 0.00343 ± 0.055 |
| AAACCCCC | -0.176 ± 0.01 |
| ACATAATC | -0.0595 ± 0.056 |
| GAGTTCCC | -0.239 ± 0.0036 |
| AGAGTATA | -0.193 ± 0.037 |
| ATGAGCCG | -0.0664 ± 0.0058 |
| ACCTTCTG | 0.0938 ± 0.069 |
| ACAGCGCC | 0.0688 ± 0.022 |
| AAGACCTA | -0.187 ± 0.046 |
| CTCGGGTA | -0.25 ± 0.046 |
| ACAGGTCA | 0.161 ± 0.01 |
| CGCCCGTC | 0.0569 ± 0.029 |
| AATACGGG | -0.245 ± 0.03 |
| GTGTACTA | -0.0501 ± 0.068 |
| GTCGGAAA | 0.00439 ± 0.0032 |
| ATTCTACG | -0.2 ± 0.078 |
| GCGCCGCC | 0.0262 ± 0.093 |
| GTAAGGTA | -0.104 ± 0.09 |
| AAAAAGCG | -0.0362 ± 0.19 |

| Sequence | PBM E-score of 8-mer |
| --- | --- |
| ACCGACAA | -0.0797 ± 0.034 |
| GGGGCTCA | -0.207 ± 0.0097 |
| CACTTACA | 0.226 ± 0.018 |
| CCCTATCC | 0.014 ± 0.014 |
| AAAGAAAT | -0.0743 ± 0.075 |
| GCTGTCGA | 0.231 ± 0.04 |
| ATTCCCCG | -0.087 ± 0.088 |
| CACTGCTG | -0.167 ± 0.16 |
| CATTTGAG | -0.167 ± 0.097 |
| AATTTCAT | -0.0923 ± 0.093 |
| CGGGACCA | -0.17 ± 0.021 |
| CAACAGTA | -0.0249 ± 0.048 |
| AATATTCA | -0.0119 ± 0.029 |
| AAGTCCCA | -0.0384 ± 0.044 |
| CTGAGTGA | 0.0791 ± 0.047 |
| AGTAGATC | -0.267 ± 0.0062 |
| CAGTCAGA | -0.291 ± 0.01 |
| CCGGGGGC | -0.15 ± 0.024 |
| ACAGAGCT | -0.249 ± 0.026 |
| CCGTATAA | -0.00481 ± 0.037 |
| ACGTTTTA | -0.0319 ± 0.053 |
| GACTATAC | -0.126 ± 0.016 |
| TACCTTAA | -0.0756 ± 0.023 |
| ACAAATAG | 0.148 ± 0.09 |
| CACCCCAA | 0.289 ± 0.0097 |

| Sequence | PBM E-score of 8-mer |
| --- | --- |
| CCCGTTTA | -0.0629 ± 0.076 |
| AAATCGTT | -0.0755 ± 0.038 |
| CCCTGCCA | 0.0348 ± 0.072 |
| CCAGGCAG | -0.0698 ± 0.14 |
| GGTATTGA | -0.05841 ± 0.00042 |
| GCCTTTAC | -0.0401 ± 0.061 |
| AATACACT | -0.086 ± 0.005 |
| GGTCTATA | -0.27 ± 0.0034 |
| GTTGGGCA | 0.111 ± 0.036 |
| CTTGCCAC | 0.305 ± 0.018 |
| AGTGCTTA | 0.0064 ± 0.1 |
| AGTGGGCC | -0.0341 ± 0.051 |
| GTGTAAAA | 0.36 ± 0.021 |
| CTCCTATC | 0.00071 ± 0.081 |
| ATGCGGGA | -0.193 ± 0.03 |
| ATTTTAAA | -0.0399 ± 0.066 |
| AAGTAGGT | 0.13 ± 0.075 |
| CGGATTGC | -0.0648 ± 0.046 |
| CACTTCAC | 0.39 ± 0.0097 |
| AGCGCAAC | -0.062 ± 0.0096 |
| ATGTTCTG | -0.2632 ± 0.00062 |
| CCATTCCG | -0.0524 ± 0.026 |
| TCAAACAA | -0.156 ± 0.023 |
| CTTTGAAC | -0.0352 ± 0.028 |
| AAGTCAAG | -0.061 ± 0.052 |

| Sequence | PBM E-score of 8-mer |
| --- | --- |
| CGGTCGAA | -0.169 ± 0.06 |
| GCATTAGC | 0.182 ± 0.021 |
| GGACCTCC | -0.327 ± 0.017 |
| ATTCTCCC | -0.301 ± 0.014 |
| CAGTCTGA | -0.137 ± 0.034 |
| GGGTACCA | 0.0313 ± 0.032 |
| ATCGCCTA | -0.0778 ± 0.05 |
| ACAGAGTA | -0.0148 ± 0.055 |
| GAGAAATA | -0.0566 ± 0.049 |
| AATAAGGC | -0.182 ± 0.018 |
| ATCCAGAA | -0.175 ± 0.021 |
| ATTAAGAA | -0.254 ± 0.043 |
| ACGGTAGA | -0.158 ± 0.023 |
| AGACAACG | -0.0213 ± 0.033 |
| CGGATGAG | -0.175 ± 0.019 |
| AATTATAC | -0.0993 ± 0.071 |
| AAAAGAGA | 0.0439 ± 0.02 |
| CCTACACA | 0.111 ± 0.019 |
| ACCCATCG | 0.0311 ± 0.045 |
| TCAGCTGA | -0.331 ± 0.081 |
| ACTTTGCG | 0.176 ± 0.0057 |
| ATGAGCAG | -0.029 ± 0.014 |
| ACCATCCG | -0.0919 ± 0.04 |
| ATGCCGGG | -0.205 ± 0.036 |
| GTTGCTTA | -0.114 ± 0.0076 |

| Sequence | PBM E-score of 8-mer |
| --- | --- |
| AACTTTGC | 0.134 ± 0.0063 |
| CGAGTTTA | 0.127 ± 0.064 |
| AACATCCG | -0.0978 ± 0.01 |
| GCGTGTTA | 0.302 ± 0.018 |
| CCACTTTA | 0.0213 ± 0.0022 |
| AAACCGAA | -0.0901 ± 0.072 |
| CCAAATTA | -0.0884 ± 0.034 |
| CCCTAACG | -0.104 ± 0.049 |
| CACTAAGG | -0.0643 ± 0.08 |
| ACACATAT | 0.407 ± 0.0072 |
| CTGAGGTA | -0.0862 ± 0.025 |
| CAATGACC | -0.105 ± 0.041 |
| GCGTGATA | 0.363 ± 0.0041 |
| AAAGTGCC | 0.17 ± 0.071 |
| CATTGTTC | -0.157 ± 0.0097 |
| GCTATTGA | 0.0355 ± 0.001 |
| AATAGCCG | -0.00329 ± 0.054 |
| ACTTCATA | -0.0145 ± 0.018 |
| ACAGTGCA | -0.0284 ± 0.09 |
| CACGGATA | -0.124 ± 0.013 |
| ACTGCAAG | -0.158 ± 0.07 |
| CTGCCAGC | 0.0132 ± 0.024 |
